Common to all, as to assay: 6-mer SELEX enrichment z-score vs GST control; IMP3 is the RNA-binding protein IGF2BP3; higher = more enriched by binding
Assay [1] deals with IMP3 KH1-4. The following applies: construct: KH1-4 (164-579); SELEX round: R4. Here is the method:
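SELEX-seq with GST-tagged IMP3 KH1-4 (Pro164-Lys579) and an N40 RNA pool, round 4. 6-mer z-score of sequence-tag enrichment normalised to the corresponding GST SELEX round; RNA k-mers written as DNA (T for U).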

Assay [2] deals with IMP3 RRM1-2. The settings on record: construct: RRM1-2 (1-163); SELEX round: R2. Here is the method: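 SELEX-seq with GST-tagged IMP3 RRM1-2 (Met1-Asn163) and an N40 RNA pool, round 2. 6-mer enrichment z-score normalised to GST SELEX. RNA written as DNA (T = U).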
Sequence of IMP3 RRM1-2 (chain, as listed by the source): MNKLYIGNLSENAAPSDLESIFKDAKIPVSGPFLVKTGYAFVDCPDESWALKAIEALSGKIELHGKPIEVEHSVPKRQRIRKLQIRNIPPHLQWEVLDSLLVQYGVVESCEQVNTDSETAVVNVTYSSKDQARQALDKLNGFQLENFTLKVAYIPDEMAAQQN
Assay [3] addresses IMP3 full-length (UniProt O00425). The settings on record: construct: FL IMP3 (1-579); SELEX round: R4. Here is the method:
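SELEX-seq with GST-tagged full-length IMP3 and an N40 RNA pool, round 4. Each 6-mer is scored as an enrichment z-score of sequence tags containing it, normalised to the matching GST SELEX round. RNA written as DNA (T = U).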

Assay [4] concerns IMP3 KH1-2. The following applies: construct: KH1-2 (164-376); SELEX round: R4. Here is the method:
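SELEX-seq with GST-tagged IMP3 KH1-2 (Pro164-Phe376) and an N40 RNA pool, round 4 (stringent 300/600 mM KCl washes). 6-mer z-score of sequence-tag enrichment normalised to the corresponding GST SELEX round; RNA k-mers written as DNA (T for U).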

The test system of assay [5] is IMP3 KH3-4. The settings on record: construct: KH3-4 (377-579); SELEX round: R4. Here is the method: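 SELEX-seq with GST-tagged IMP3 KH3-4 (Pro377-Lys579) and an N40 RNA pool, round 4. 6-mer z-score of sequence-tag enrichment normalised to the corresponding GST SELEX round; RNA k-mers written as DNA (T for U).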
Sequence of IMP3 KH3-4 (chain, as listed by the source): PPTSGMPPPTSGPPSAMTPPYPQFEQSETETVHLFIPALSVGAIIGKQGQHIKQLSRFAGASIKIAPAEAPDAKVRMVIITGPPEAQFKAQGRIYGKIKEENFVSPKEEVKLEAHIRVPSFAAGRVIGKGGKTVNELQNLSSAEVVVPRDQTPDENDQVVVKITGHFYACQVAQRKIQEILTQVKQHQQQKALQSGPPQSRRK

This is one part of the list. These are enrichments in a pooled selection; single values are uncertain. Each score is taken over the longer molecules that contain the sequence shown.

The text below walks through data of the supplement of paper PMC6531468.

Sequence of IMP3 KH1-4 (chain, as listed by the source): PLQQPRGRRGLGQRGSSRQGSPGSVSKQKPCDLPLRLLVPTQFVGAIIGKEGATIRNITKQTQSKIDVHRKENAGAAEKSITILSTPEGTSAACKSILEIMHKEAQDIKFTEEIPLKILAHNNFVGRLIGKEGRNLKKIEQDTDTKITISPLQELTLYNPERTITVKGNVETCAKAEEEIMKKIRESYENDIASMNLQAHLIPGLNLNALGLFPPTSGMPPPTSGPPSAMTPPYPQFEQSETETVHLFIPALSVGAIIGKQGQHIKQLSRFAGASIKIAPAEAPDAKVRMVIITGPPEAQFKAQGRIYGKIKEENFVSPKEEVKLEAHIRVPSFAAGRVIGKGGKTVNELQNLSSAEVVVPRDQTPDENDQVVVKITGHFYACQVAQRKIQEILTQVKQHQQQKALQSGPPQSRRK
Sequence of IMP3 KH1-2 (chain, as listed by the source): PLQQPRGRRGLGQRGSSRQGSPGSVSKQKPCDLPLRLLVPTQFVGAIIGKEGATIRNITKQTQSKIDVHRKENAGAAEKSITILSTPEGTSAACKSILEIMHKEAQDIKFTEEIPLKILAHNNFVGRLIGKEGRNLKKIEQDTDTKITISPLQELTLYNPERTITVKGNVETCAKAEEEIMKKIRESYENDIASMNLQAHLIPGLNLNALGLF
Sequence of UniProt O00425 (O00425 whole entry): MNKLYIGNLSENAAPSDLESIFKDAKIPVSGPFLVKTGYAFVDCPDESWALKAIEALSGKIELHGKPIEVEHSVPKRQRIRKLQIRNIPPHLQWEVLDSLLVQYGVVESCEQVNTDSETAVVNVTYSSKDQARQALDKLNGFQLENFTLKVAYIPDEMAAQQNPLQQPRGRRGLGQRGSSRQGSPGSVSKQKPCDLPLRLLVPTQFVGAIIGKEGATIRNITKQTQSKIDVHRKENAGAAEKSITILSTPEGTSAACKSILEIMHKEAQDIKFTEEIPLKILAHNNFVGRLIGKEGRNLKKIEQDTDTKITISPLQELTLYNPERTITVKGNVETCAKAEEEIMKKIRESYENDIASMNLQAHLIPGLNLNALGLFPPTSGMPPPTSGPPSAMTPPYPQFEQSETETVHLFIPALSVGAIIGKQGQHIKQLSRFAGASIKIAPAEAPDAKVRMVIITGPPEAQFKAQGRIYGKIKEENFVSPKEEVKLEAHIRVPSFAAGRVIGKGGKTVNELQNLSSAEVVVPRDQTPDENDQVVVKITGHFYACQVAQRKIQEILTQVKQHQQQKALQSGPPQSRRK

As to AGCTAG, the “6-mer SELEX enrichment z-score” value in assay [1] is -1.01; in assay [2], 0.009; in assay [3], -0.599; in assay [4], -0.894; in assay [5], -0.793.
As for TGACGT, the “6-mer SELEX enrichment z-score” value is -0.782 in assay [1]; -0.356 in assay [2]; -0.474 in assay [3]; -0.81 in assay [4]; -0.617 in assay [5].
The like results for TCTAGA were, in that order, -0.157, -0.11, -0.296, -0.189 and 0.003.
For TTAACG, in that order: 0.184, -0.482, -0.566, 0.023 and 0.506.
For the sequence ATACGT, the “6-mer SELEX enrichment z-score” value was 0.274 in assay [1]; -0.034 in assay [2]; -0.063 in assay [3]; -0.035 in assay [4]; 0.228 in assay [5].
For TTAGAC, in that order: 0.253, -0.226, -0.28, 0.168 and 0.382.
The like results for GACGTT were, in that order, -0.862, -0.182, -0.485, -0.818 and -0.641.
On to CTGGTG, for which the “6-mer SELEX enrichment z-score” value in assay [1] was -0.227; in assay [2], 0.191; in assay [3] it was -0.103; in assay [4], -0.161; in assay [5] it was -0.158.
The like results for AAGTCT were, in that order, -0.469, 0.054, -0.143, -0.425 and -0.352.
As for TCCGGT, the “6-mer SELEX enrichment z-score” value was 0.002 in assay [1]; -0.012 in assay [2]; 0.19 in assay [3]; 0.011 in assay [4]; -0.029 in assay [5].
In the case of GAAGAA, the “6-mer SELEX enrichment z-score” value in assay [1] is 0.802; in assay [2], -1.76; in assay [3] it was -0.963; in assay [4], 0.454; in assay [5], 1.35.
In the case of TAGAAA, the “6-mer SELEX enrichment z-score” value in assay [1] is 0.071; in assay [2], -1.14; in assay [3], -0.97; in assay [4], 0.05; in assay [5], 0.957.
For TAACCT, in that order: -0.683, -0.685, -1.24, -0.691 and -0.806.
For AGTCAC, in that order: 0.474, 0.424, 0.67, 0.19 and 0.029.
Take GTCCTC: the “6-mer SELEX enrichment z-score” value in assay [1] is 0.051; in assay [2], 0.089; in assay [3], 0.093; in assay [4], -0.061; in assay [5], -0.312.
For CCACCG, in that order: -0.595, -0.648, -0.389, -0.358 and -1.56.
As for TGGACA, the “6-mer SELEX enrichment z-score” value in assay [1] was 0.635; in assay [2], -0.319; in assay [3], 0.34; in assay [4], 0.354; in assay [5], 0.284.
As for TTCCAA, the “6-mer SELEX enrichment z-score” value in assay [1] was -0.248; in assay [2], -0.001; in assay [3], -0.593; in assay [4] it was -0.249; in assay [5], -0.436.
As for TGATGG, the “6-mer SELEX enrichment z-score” value was 0.815 in assay [1]; -0.008 in assay [2]; 0.06 in assay [3]; 0.538 in assay [4]; 0.852 in assay [5].
With TGTTTT, the “6-mer SELEX enrichment z-score” value in assay [1] was determined as 0.194; in assay [2], 0.408; in assay [3], 0.02; in assay [4] it was 0.223; in assay [5], 0.461.
